Measurements taken from paper PMC4336329 (PLoS ONE, 2015).
Hit rate of the full screen: of about 310,000 compounds, about 14,000 (4.5%) showed an effect of 50% or more. The effect is printed as a negative number. This is one part of the list.

molecular target: human ether-à-go-go-related gene (hERG) potassium channel (human, UniProt Q12809); assay: primary screen, population patch clamp on CHO cells stably expressing hERG
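Further: peak tail current of the secondary pulse compared with the same well before compound.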

Chain of human ether-à-go-go-related gene (hERG) potassium channel (Q12809 whole entry, looked up): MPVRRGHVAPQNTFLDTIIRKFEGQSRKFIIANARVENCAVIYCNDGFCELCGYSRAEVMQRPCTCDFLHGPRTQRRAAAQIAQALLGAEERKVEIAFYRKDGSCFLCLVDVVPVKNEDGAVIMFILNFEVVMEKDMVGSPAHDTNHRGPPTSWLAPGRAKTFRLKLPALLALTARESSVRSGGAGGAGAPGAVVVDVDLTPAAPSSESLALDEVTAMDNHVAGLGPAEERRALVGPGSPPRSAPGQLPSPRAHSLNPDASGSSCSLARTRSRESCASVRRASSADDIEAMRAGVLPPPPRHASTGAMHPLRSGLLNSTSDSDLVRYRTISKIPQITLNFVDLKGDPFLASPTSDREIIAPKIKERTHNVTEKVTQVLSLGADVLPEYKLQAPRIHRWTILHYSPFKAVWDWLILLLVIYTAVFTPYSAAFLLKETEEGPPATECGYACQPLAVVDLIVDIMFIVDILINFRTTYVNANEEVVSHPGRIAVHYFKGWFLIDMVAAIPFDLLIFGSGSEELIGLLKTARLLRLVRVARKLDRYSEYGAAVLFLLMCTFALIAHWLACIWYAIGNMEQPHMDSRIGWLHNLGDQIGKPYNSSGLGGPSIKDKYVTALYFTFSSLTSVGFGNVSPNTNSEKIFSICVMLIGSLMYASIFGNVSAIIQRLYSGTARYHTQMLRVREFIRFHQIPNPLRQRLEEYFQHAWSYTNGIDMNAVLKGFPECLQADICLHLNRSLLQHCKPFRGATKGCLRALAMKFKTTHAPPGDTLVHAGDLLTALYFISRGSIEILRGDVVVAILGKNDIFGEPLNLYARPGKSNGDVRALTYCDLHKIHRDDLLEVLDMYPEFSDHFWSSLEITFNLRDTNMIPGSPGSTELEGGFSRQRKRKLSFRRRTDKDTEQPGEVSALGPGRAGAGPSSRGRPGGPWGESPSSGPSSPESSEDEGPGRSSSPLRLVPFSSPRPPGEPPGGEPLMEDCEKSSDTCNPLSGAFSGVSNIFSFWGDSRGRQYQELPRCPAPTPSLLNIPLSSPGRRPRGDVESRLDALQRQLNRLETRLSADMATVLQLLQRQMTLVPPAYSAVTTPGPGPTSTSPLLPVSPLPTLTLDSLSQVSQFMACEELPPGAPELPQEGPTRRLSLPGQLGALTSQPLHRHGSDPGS

Row | Structure (SMILES) | hERG current change (%, negative = inhibition) at 10uM [%]
1 | CCCc1nc2ccccc2c(=O)n1/N=C/c1ccccc1O | 6.95
2 | O=C(CN1CCN(c2ccccc2)CC1)Nc1ccc2c(c1)CCC2 | -7.68
3 | COc1cccc(CN(C)C(=O)c2cc(COc3ccc(-n4cncn4)cc3)on2)c1 | -79.9
4 | Cc1cc(S(=O)(=O)N2CCCC(C(=O)Nc3ccc(C(=O)O)cc3)C2)ccc1Cl (centres unmarked) | 10.2
5 | O=C(NCc1cccc(Cl)c1)c1cccc(S(=O)(=O)N2CCCCC2)c1 | 7.08
6 | Brc1cnc2nc(SC/C=C/c3ccccc3)[nH]c2c1 | -3.38
7 | COc1cc(OC)cc(C(=O)N2CCN(Cc3ccccc3C(F)(F)F)CC2)c1 | -15.2
8 | CCOc1ccccc1C(=O)N(Cc1sccc1C)C1CCS(=O)(=O)C1 (centres unmarked) | -17.5
9 | Cc1ccc(SCCSc2nc(C)cc(=O)[nH]2)cc1 | 14.1
10 | COCCNC(=O)c1c[nH]c2ccc(S(=O)(=O)Nc3ccc(F)cc3F)cc2c1=O | 27.8
11 | COc1ccc2cc(C)c3nnc(SCC(=O)Nc4cc(OC)c(OC)cc4C(=O)O)n3c2c1 | 16.7
12 | CC(C)(C)NC(=O)/C(=C/c1ccccc1F)NC(=O)c1ccc([N+](=O)[O-])cc1 | -25.6
13 | Cl.NC1C=CC=C(C(=O)O)C1 (centres unmarked) | 3.23
14 | Cc1[nH]c2ccccc2c(=O)c1SC(F)(F)C(F)C(F)(F)F (centres unmarked) | -5.97
15 | COc1ccc(NC(=O)Cn2nnc(C(=O)NCCc3ccccc3)c2N)c(OC)c1 | 3.71
16 | COc1ccc(OC2C(=O)N(Cc3ccc(F)cc3)C2c2ccc(OC)c(OC)c2)cc1 (centres unmarked) | -13.6
17 | Cc1nc2ccccc2nc1SCC(=O)c1ccccc1 | 16.3
18 | C=CCN1C(=O)NC(=O)/C(=C/c2ccc(N(C)C)c(Br)c2)C1=O | 8.07
19 | CCOc1ccc(-c2nc(C#N)c(N3CCN(Cc4ccccc4)CC3)o2)cc1 | 4.04

Row | Structure (SMILES) | hERG current change (%, negative = inhibition) at 10uM [%]
20 | CCN(CC)CCOc1nnc(-c2ccc(OC)cc2)c2ccccc12 | -65
21 | CN(Cc1ccccc1)C(=O)COC(=O)c1cc(Cl)nc(Cl)c1 | -5.63
22 | CN(CC(=O)Nc1ccccc1Cl)C(=O)COC(=O)c1ccc(C(F)(F)F)cc1 | -9.53
23 | COc1ccccc1OCCn1cc(/C=C(\C#N)C(=O)NCc2ccco2)c2ccccc21 | -1.19
24 | CC1(C)CC(=O)C2=C(C1)Nc1ccccc1N=C2.Cl | -8.52
25 | Cc1ccccc1N1C(=O)C2ON(c3ccccc3)C(c3ccco3)C2C1=O (centres unmarked) | 16.8
26 | CC1CCCCC1NC(=O)c1ccc(NS(=O)(=O)c2ccc3[nH]c(=O)[nH]c3c2)cc1 (centres unmarked) | -4.17
27 | COc1cc(NC(=O)COc2ccc(C)c(C)c2)ccc1NC(=O)c1ccco1 | -14.3
28 | Cn1c(CCn2ccccc2=O)nc2cc(NC(=O)COc3ccccc3)ccc21 | -40.6
29 | O=[N+]([O-])c1ccccc1/C=C/C=N/n1c(-c2ccccc2)n[nH]c1=S | 8.59
30 | COc1ccc(OCC(=O)NNC(=O)c2ccc3c(=O)n4c(nc3c2)CCC4)cc1 | -5.54
31 | O=C(CCC(=O)NCc1ccccc1)NCc1ccccc1 | 11.8
32 | Cc1cc(C)n2nc(C(=O)NCC(=O)Nc3ccc(F)c(F)c3)nc2n1 | 4.9
33 | COc1ccc(N2CCN(C(=O)CCn3nnc4ccccc43)CC2)cc1 | -3.96
34 | O=C1CCCN1CN(C(=O)c1ccc2c(c1)OCO2)c1ccc(F)cc1 | 8.9
35 | CCOc1ccc(C(=O)Nc2cc(=O)n(C)c(=O)n2C)cc1 | 2.31
36 | Cn1c(=O)cc(SCC(=O)N2CCN(C(=O)c3ccco3)CC2)c2ccccc21 | -27.4
37 | Cc1ccc(N(CC(=O)NC2CCCCC2)C(=O)CNC(=O)c2cccs2)cc1 | -11.1
38 | Cc1ccsc1C(=O)Nc1cccc(S(=O)(=O)N(C)C)c1 | -7.26

Row | Structure (SMILES) | hERG current change (%, negative = inhibition) at 10uM [%]
39 | CCc1nn(CCCC(=O)N2CCC(C)CC2)c(=O)c2cc3occc3n12 | -2.71
40 | O=C1N=c2ccccc2=C1c1sc(=O)[nH]c1O | 15.6
41 | Cn1cc(Br)c(C(=O)n2cc(Br)cn2)n1 | 16.2
42 | CCOc1ccc2ccccc2c1C(=O)N1CCN(c2ccccc2)CC1 | -36.4
43 | COC(=O)c1scc(S(C)(=O)=O)c1-n1cccc1 | 9.77
44 | O=C(c1ccc(Br)cc1)N1CCN(S(=O)(=O)c2ccccc2)CC1 | -38.5
45 | N#Cc1ccsc1NC(=O)CN1CCN(Cc2ccccc2)CC1 | -66.4
46 | COc1ccc2nc(/N=C(\N)NC(=O)C(C)(C)C)nc(C)c2c1 | -46.5
47 | O=C(CC(Nc1ccccc1)C(=O)O)c1ccccc1 (centres unmarked) | 11.2
48 | Nc1nc(CN2CCN(C(c3ccccc3)c3ccccc3)CC2)nc(Nc2ccccc2)n1 | -18.4
49 | Cc1ccc2oc(=O)cc(CN3CCOCC3)c2c1 | -8.53
50 | CCCCN=CC1=C(O)CC(c2ccccc2)CC1=O (centres unmarked) | -9.85
51 | Cl.OC(COc1ccccc1F)CN1CCC(Cc2ccccc2)CC1 (centres unmarked) | -76.2
52 | CCOC(=O)NC(=O)CSc1nc2ccc(C)cc2[nH]1 | 8.02
53 | Cc1ccccc1CCNC(=O)C1CC(O)CN1C(=O)Nc1ccccc1 (centres unmarked) | 6.41
54 | CCC1CCCCN1Cc1nc2c(c(=O)n(C)c(=O)n2C)n1CCCc1ccccc1 (centres unmarked) | -11.2
55 | COc1cccc(CNc2nc3nc(C)c(Cl)c(=O)n3[nH]2)c1 | 4.31
56 | COc1ccccc1NCC(=O)c1ccc(C)c(C)c1 | 15.3
